{"source": "paper PMC10979476", "about": "“Molecular Deformation Is a Key Factor in Screening Aggregation Inhibitor for Intrinsically Disordered Protein Tau” (ACS Central Science, 2024)", "test_system": "total tau in the hippocampus", "assay": "Intracerebroventricular injection in 3xTg AD mice, immunohistochemistry with Tau-5", "type": "in vivo", "details": "10-month-old 3xTg mice, 5 μL 1 mM, 48 h", "description": "We next sought to determine whether IPP1 could also promote tau clearance with a transgenic mouse model. Transgenic modeling of AD is a promising tool in understanding the underlying mechanisms. […] The 3xTg-AD is an ideal model for inhibiting tau pathologies. The 3xTg AD model mice expressing APP Swedish, PSEN1M146 V, and MAPT P301L were bred in our AAALAC-accredited facility. The 3xTg mice at 10 months old were randomly allocated into a vehicle group (n = 3) and an IPP1 group (n = 3). For orthotopic brain injections and drug delivery, the mice were anesthetized with halothane (induction 5% and maintenance 1%) and fixed to the stereo tactical frame. The holes were drilled stereotaxically in the skull at a cerebroventricular location (posterior 0.22 mm, lateral 0.9 mm, and ventral 2.3 mm relative to the bregma). Using a microinjection system (Shenzhen RWD Life Technology Co., Ltd.; RWD 69100), IPP1 (5 μL, 1 mM) was diluted with 20% HP-β-CD, which was administered by direct intracranial injection, and 20% HP-β-CD solution was used as a loading control. […] The cell slides were mounted with an anti-fluorescence quencher, and the outer ring is fixed with nail polish. Fluorescence images were obtained under a confocal microscope (Leica TCS SP8). […]"}
{"molecule": "O=C1Nc2cccc(-c3ccc(N4CCCC4)nc3)c2C1=O", "note": "[IPP1, 4-(6-(pyrrolidin-1-yl)pyridin-3-yl)indoline-2,3-dione]", "values": [{"measurement": "total tau levels in the hippocampus", "result": "reduced total tau levels in the hippocampus"}]}
